Data from PubChem BioAssay AID686978 (National Center for Advancing Translational Sciences (NCATS), 2013).
Hit rate of the full screen: of about 420,000 compounds, about 64,000 (15%) were called active. The inconclusive results got no clear call from the source; some entries with a clear call stand among them for comparison. Calls come from the whole dose curve; as a rule, active = well fitted inhibition curve with a large enough effect; inconclusive = small, poorly fitted or top-dose-only effect; inactive = flat fitted curve, though single readings scatter. No potency is given beside an inconclusive call; the fits are too rough.

Experiment: qHTS for Inhibitors of human tyrosyl-DNA phosphodiesterase 1 (TDP1): qHTS in cells in absence of CPT; note: nearly all actives have a fitted effect of over 55% in size
Details: DT40 Tdp1-/- hTDP1 cells, no CPT, ATP luminescence, 48 h; activity change, negative = growth inhibition: at 46.2 µM (top of the series) unless noted
Procedure, shortened: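 DT40 Tdp1-/-;hTDP1 cells, no CPT (DMSO vehicle only), 400 cells/well; compounds pin-transferred; ≥48 hr, 37 °C; CellTiter-Glo 30 min RT dark, luminescence read.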
% is set by controls: 0 for no effect and ±100 for the full control effect; potency is the fitted concentration of half-maximal effect; tags give direction and shape of the fitted curve.

SMILES	Potency	activity change, negative = growth inhibition
CCOC(=O)CNC(=O)CSc1nc(Cc2cccs2)nc2ccccc12	inconclusive [inhibitor, single point]	–
CC1(C)CC(=O)C2=C(C1)OC(N)=C(C#N)C21CCN(Cc2ccccc2)CC1	inconclusive [inhibitor, single point]	–
Cc1cc(C)c(S(=O)(=O)N2CCC(N3CCN(Cc4ccccc4)C(=O)C3=O)CC2)c(C)c1	inactive	–
N=c1c(C(=O)NCc2ccc3c(c2)OCO3)cc2c(=O)n3ccccc3nc2n1CC1CCCO1 (stereo unspecified)	inconclusive [inhibitor, single point]	–
CCOC(=O)C1=CCN(S(=O)(=O)c2ccccc2Cl)C1c1ccc(Cl)c(Cl)c1 (stereo unspecified)	inconclusive [inhibitor, single point]	–
CCC1(c2ccc(F)cc2)NC(=O)N(CC(=O)N(C)C2CCS(=O)(=O)C2)C1=O (stereo unspecified)	inactive	–
COc1ccc(CCNS(=O)(=O)c2ccc(-n3cnnn3)cc2)cc1OC	inactive	–
CC(Cn1cncn1)NC(=O)c1cc(COc2cccc(C(F)(F)F)c2)on1 (stereo unspecified)	inactive	–
CCN(CC)C(=O)c1[nH]cnc1C(=O)N[C@@H](C)C(=O)OC(C)(C)C	inactive	–
Cc1cccc(COCC(Cc2ccccc2)N2CCN(C(=O)c3ccc(Cl)c(Cl)c3)CCC2=O)c1 (stereo unspecified)	inconclusive [inhibitor, single point]	–
Cc1nnc(NC(=O)CSc2nccn2Cc2ccc(Cl)cc2)s1	inconclusive [inhibitor, single point]	–
CCOC(=O)c1oc2ccccc2c1NC(=O)c1ccco1	–	inconclusive: -32.1% [inhibitor]
C[C@H](NS(=O)(=O)c1ccc(Cl)cc1)C(=O)OCC(=O)c1ccc[nH]1	inactive	–
CN(C)S(=O)(=O)c1ccc(NC(=O)CN2CCCC2c2ccc3c(c2)OCCCO3)cc1 (stereo unspecified)	inconclusive [inhibitor, partial curve, poor fit]	–
c1ccc2c(c1)CCc1c-2nc2ccccc2c1N1CCOCC1	inconclusive [inhibitor, partial curve, poor fit]	–
CCS(=O)(=O)c1ncc(Cl)c(C(=O)Nc2c(C(=O)Nc3cccc(C)c3)oc3ccccc23)n1	active: 0.731 µM	–
Cc1ccc(-c2c(C(=O)N3CCN(c4cc(Cl)ccc4C)CC3)oc(=O)c3ccccc23)cc1	inconclusive [inhibitor, single point]	–
COc1ccc(/C=N/N2C(=O)c3ccccc3C2=O)cc1	inactive	–
Cc1cccc(NNC(=S)Nc2c(C)cccc2C)c1	inconclusive [inhibitor, single point]	–
COc1ccc(CCNS(=O)(=O)c2ccc(S(=O)(=O)N3CCCC3)cc2)cc1OC	inconclusive [inhibitor, partial curve]	–
CC1CCc2sc(NC(=O)C3CC(Cl)=CCC3C(=O)O)c(C#N)c2C1 (stereo unspecified)	inactive	–
CCN(Cc1ccccc1)C(=O)c1cc(S(=O)(=O)N2CCOCC2)ccc1N1CCCC1	active: 16.4 µM	–
O=C1CCCCC1C(O)(C(=O)c1ccccc1)c1ccccc1 (stereo unspecified)	inconclusive [inhibitor, partial curve, poor fit]	–

SMILES	Potency	activity change, negative = growth inhibition
COC(=O)c1sc(=S)sc1C(=O)OC	inconclusive [inhibitor, single point]	–
CCc1ccccc1NC(=O)Cc1ccc(NC(=O)N2CCCCc3ccccc32)cc1	inconclusive [inhibitor, single point]	–
O=S(=O)(Nc1ccccn1)c1ccc(C(F)(F)F)cc1Cl	inactive	–
COc1cc2ccccc2ccc1=NO	active: 11.6 µM	–
CC(C)(C)NC(=O)C(c1ccc(-c2ccccc2)cc1)n1c(=O)c(-c2ccco2)nc2ccccc21 (stereo unspecified)	inconclusive [inhibitor, single point]	–
CCc1cccc(NC(=O)Nc2cccs2)c1	inconclusive [inhibitor, single point]	–
C=CCn1c(=O)c2ccccc2n2c(SC(C)C(N)=O)nnc12 (stereo unspecified)	inactive	–
COc1ccc(N(C(=O)CCl)C(C(=O)NC2CCCCC2)c2cccnc2)cc1 (stereo unspecified)	active: 2.31 µM	–
O=C(NC1=NCCS1)c1cccc(N2C(=O)c3ccccc3C2=O)c1	inactive	–
CC1SCCN1S(=O)(=O)c1ccc2ccccc2c1 (stereo unspecified)	inconclusive [inhibitor, single point]	–
Cc1cc(NS(=O)(=O)c2ccc(NC(=O)c3ccccc3F)cc2)no1	inactive	–
CCC(C)Sc1cccc(-c2nc3ccccn3c2NCc2ccccc2)c1 (stereo unspecified)	inconclusive [inhibitor, single point]	–
COc1ccccc1N1CCN(C(CNC(=O)C(=O)NCc2ccc(F)cc2)c2cccnc2)CC1 (stereo unspecified)	active: 5.8 µM	–
COc1ccccc1NS(=O)(=O)c1cccc(C(=O)NCC(c2cccs2)N2CCOCC2)c1 (stereo unspecified)	inconclusive [inhibitor, single point]	–
C[C@H](CO)N1C[C@H](C)[C@@H](CN(C)C(=O)NC2CCCCC2)Oc2ncc(Br)cc2C1=O	inactive	–
Cc1nn(C)c(Cl)c1C(N)=O	inactive	–
COc1cc(C(=O)Nc2ccc3c(c2)N(C2CCCC2)C(=O)c2ccccc2S3)cc(OC)c1OC	inconclusive [inhibitor, full curve]	–
Cc1noc(C)c1N=Nc1ccc(Br)cc1C(=O)O	inactive	–
O=C1CSC(=S)N1N=Cc1ccccc1O	active: 9.2 µM	–
CC(NC(=S)NC1CCCCC1)C(c1cccs1)N1CCOCC1 (stereo unspecified)	inconclusive [inhibitor, single point]	–
CCOc1ccccc1NC(=O)C1CCCN1S(=O)(=O)c1ccc2c(c1)C(C)(C)C(=O)N2C (stereo unspecified)	inconclusive [inhibitor, single point]	–
CCCCn1c(N)c(N(CCC(C)C)C(=O)C2CCCC2)c(=O)[nH]c1=O	inconclusive [inhibitor, single point]	–
CC(C)NC(=O)CSc1nc2sccc2c(=O)n1-c1ccccc1	inconclusive [inhibitor, single point]	–
